Measurements reported in patent US20100292337A1, “Polar Hydrophilic Prodrugs of Amphetamine and Other Stimulants and Processes for Making and Using the Same” (priority 2007, published 2010).

Test: Example 17: oral pharmacokinetic study of Cit-Amp, hCit-Amp and Lys-Amp at seven dosage levels, plasma d-amphetamine by LC-MS/MS
Settings: oral gavage, rat, released d-amphetamine

| Substance | AUC (dose 0.5 mg/kg d-Amp content) [ng·h/mL] | Cmax (dose 0.5 mg/kg d-Amp content) [ng/mL] | AUC (dose 4.5 mg/kg d-Amp content) [ng·h/mL] | Cmax (dose 4.5 mg/kg d-Amp content) [ng/mL] | AUC (dose 10 mg/kg d-Amp content) [ng·h/mL] | Cmax (dose 10 mg/kg d-Amp content) [ng/mL] |
| --- | --- | --- | --- | --- | --- | --- |
| l-lysine-d-amphetamine [Lys-Amp, reference compound] | 131 | 22.7 | 873 | 152.0 | 3162 | 554.4 |
| l-citrulline-d-amphetamine hydrochloride [Cit-Amp] | 122 |  | 721 |  | 1689 |  |
| l-homocitrulline-d-amphetamine hydrochloride [hCit-Amp] | 99 | 20.1 | 755 | 124.2 | 1400 | 216.4 |
